Reference: the BET-seq Pho4 binding data (Le et al. 2018)
The other results are listed elsewhere or left out. Values were computed here from the reads of four pooled replicates and scatter widely.

biological target: T1, Pho4 (S. cerevisiae) (UniProt P07270); assay: relative binding free energy (BET-seq); higher = weaker binding; conditions: reference: library average
T1 sequence: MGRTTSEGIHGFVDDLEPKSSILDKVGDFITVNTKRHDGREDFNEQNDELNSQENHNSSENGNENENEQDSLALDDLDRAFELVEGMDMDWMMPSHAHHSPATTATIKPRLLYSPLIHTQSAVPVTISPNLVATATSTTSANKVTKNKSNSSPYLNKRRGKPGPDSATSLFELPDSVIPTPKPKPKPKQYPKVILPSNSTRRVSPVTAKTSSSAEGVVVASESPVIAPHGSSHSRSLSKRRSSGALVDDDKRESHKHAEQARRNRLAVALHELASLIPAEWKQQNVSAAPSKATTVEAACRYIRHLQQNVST

Row | Sequence | relative binding free energy [kcal/mol]
1 | TTTTGCACGTGATGCC | 0.17
2 | GTTAGCACGTGTTGCG | 0.01
3 | CTGGTCACGTGTCAAG | 0.34
4 | GGTTTCACGTGCTGCG | 0.31
5 | TTTAGCACGTGTGGGC | -0.03
6 | TCGGGCACGTGTTGAG | -0.23
7 | AGGTGCACGTGTAAAG | 0.02
8 | AGGGTCACGTGTCAGT | -0.03
9 | GCGGGCACGTGGTGTT | -0.07
10 | GGGGTCACGTGCCGGA | 0.02
11 | TGGCGCACGTGAAATT | 0.33
12 | TGGGGCACGTGCCGGG | -0.18
13 | TCTCGCACGTGATTTG | 0.14
14 | CTGTGCACGTGGTATT | -0.2
15 | GTGTTCACGTGTTGTA | 0.17
16 | GCTTTCACGTGGCTTT | 0.34
17 | GGGTCCACGTGTGTTC | 0.17
18 | GTGGACACGTGGTATC | 0.05
19 | ATGGTCACGTGTGTGT | 0.12
20 | AGAGTCACGTGAGTTA | 0.31
21 | AAGCGCACGTGATTGT | 0.16
22 | TGGGTCACGTGTCTCT | 0.28
23 | TTGAGCACGTGCGTGC | -0.23
24 | AGGGTCACGTGGAAAT | 0.18
25 | ATCATCACGTGATGTT | 0.11

Row | Sequence | relative binding free energy [kcal/mol]
26 | ATTAACACGTGTGTAA | -0.16
27 | TCGTACACGTGAGTTT | 0.28
28 | TTCTGCACGTGAGGCG | 0.15
29 | GAGGTCACGTGAGAAG | 0.36
30 | TGACTCACGTGTTGGA | 0.23
31 | AGCTTCACGTGGTTAA | 0.24
32 | GACGGCACGTGGTTAG | -0.05
33 | AAAGACACGTGGTATT | -0.02
34 | TGTTGCACGTGTAGTT | 0.09
35 | GGTAACACGTGGCATT | 0.05
36 | GATAGCACGTGGTTCA | -0.08
37 | CTTGACACGTGTGGTA | 0.1
38 | ATCTTCACGTGTGGCG | 0.37
39 | TGGTGCACGTGTATAC | 0.01
40 | CTGGGCACGTGACGGG | -0.13
41 | GCTTTCACGTGTTAAT | 0.23
42 | TTTCTCACGTGATTGA | 0.24
43 | TTGTACACGTGGGTCT | -0.02
44 | GGTGCCACGTGTAATG | 0.06
45 | GGGTGCACGTGAGCTG | 0.13
46 | TGCTGCACGTGGAGGT | -0.14
47 | ATGCGCACGTGCGGGT | -0.13
48 | GGTTTCACGTGAATGT | 0.44
49 | GGAAGCACGTGGAGTA | 0.02
50 | TTGATCACGTGGTTGG | 0.15

Row | Sequence | relative binding free energy [kcal/mol]
51 | CTTATCACGTGGTCGG | 0.03
52 | CGTGTCACGTGTGCCG | 0.19
53 | TTCGGCACGTGATTGA | -0.04
54 | GTGTACACGTGGTGAA | 0.09
55 | TGTGTCACGTGATGCA | 0.13
56 | AAGGACACGTGGGGGT | -0.09
57 | TTGTGCACGTGATACG | 0.12
58 | GGACGCACGTGGAGGA | -0.11
59 | AAGGCCACGTGGCGTG | -0.2
60 | TTCTGCACGTGGGTAA | -0.2
61 | AGGTTCACGTGCATGG | 0.27
62 | ATTTACACGTGCGATG | 0.15
63 | GCGTGCACGTGCGATG | 0.1
64 | GTTAACACGTGGGGGT | -0.07
65 | ATTAGCACGTGTGGTC | 0.07
66 | ATAATCACGTGTGGTG | 0.1
67 | ACATGCACGTGTGTGA | 0
68 | TTGTCCACGTGTTCGT | 0
69 | TTCCTCACGTGTGGGG | 0.26
70 | TGGAACACGTGGCGTG | -0.1
71 | TATTGCACGTGAATAT | 0.15
72 | GTTTACACGTGACTTG | 0.22
73 | GGGAGCACGTGTTATG | -0.12
74 | GTGGGCACGTGCTGTC | -0.08
75 | GTGAACACGTGTGGTT | 0.15

Row | Sequence | relative binding free energy [kcal/mol]
76 | TATTACACGTGTAGTC | 0.18
77 | GTACGCACGTGGTGGC | -0.05
78 | TAGATCACGTGGTGTG | 0.06
79 | TAGTACACGTGAGGGG | 0.31
80 | TAGATCACGTGGGGAT | 0.08
81 | ACTTTCACGTGTGAGT | 0.26
82 | CTGGGCACGTGTGCGG | -0.19
83 | GTAAACACGTGAGGGC | 0.32
84 | GGGAACACGTGAGGGA | 0.37
85 | TTCGTCACGTGGTGGC | 0.19
86 | GGTTTCACGTGGACGA | 0.35
87 | TAAGGCACGTGGAATG | 0.02
88 | GGTAACACGTGTGAGA | 0.1
89 | GATAGCACGTGTTCTT | 0.09
90 | TATATCACGTGTATGT | 0.14
91 | TAGAACACGTGTTTAA | 0.12
92 | GTCGGCACGTGAGGTT | 0.19
93 | GAGTGCACGTGGTCTT | 0.09
94 | TTTTGCACGTGGCGCT | -0.15
95 | AAAGGCACGTGTTGGC | -0.11
96 | GAACTCACGTGGGGGT | 0.08
97 | CGTAGCACGTGGCATG | -0.19
98 | ATATTCACGTGTCGTT | 0.18
99 | AGTTACACGTGCGAGT | 0.13
100 | TGGGTCACGTGCTGCG | 0.05

Row | Sequence | relative binding free energy [kcal/mol]
101 | GGATTCACGTGTGAAT | 0.3
102 | TCGGTCACGTGAGCTG | 0.31
103 | TCATTCACGTGTTGAG | 0.35
104 | GTTGGCACGTGATGAG | 0.06
105 | TGGACCACGTGTAGTG | 0.03
106 | TTTAACACGTGGATTA | -0.03
107 | GCTGGCACGTGGCGTT | -0.16
108 | AGGGCCACGTGGGGTC | -0.25
109 | TGAAGCACGTGTTATG | -0.21
110 | AGGGGCACGTGGGGGT | -0.19
111 | GGATGCACGTGATAGG | 0.07
112 | GTGTGCACGTGTTAGT | 0.08
113 | TATCGCACGTGGTTTT | -0.13
114 | GATCTCACGTGAGGGG | 0.29
115 | GGCCGCACGTGGATGG | 0.06
116 | GTTGTCACGTGACGAG | 0.18
117 | TGGCGCACGTGAGGAT | 0.08
118 | TTGTTCACGTGGGAAC | 0.35
119 | CTGTTCACGTGTTATG | 0.32
120 | TCGGTCACGTGCTTGT | 0.03
121 | AGAGTCACGTGATATG | 0.08
122 | TTGGGCACGTGTGGTG | -0.02
123 | TGATGCACGTGATTGA | 0.1
124 | CAGGGCACGTGTAGTG | -0.05
125 | GTCGTCACGTGGCTTT | 0.05

Row | Sequence | relative binding free energy [kcal/mol]
126 | TTGGTCACGTGTACCG | 0.15
127 | TGGGTCACGTGCGTGA | -0.04
128 | CTCATCACGTGTGGGG | 0.15
129 | CATAGCACGTGAGGTG | 0.23
130 | ATAGTCACGTGGTGCA | -0.04
131 | TACAGCACGTGATGGT | 0.05
132 | CTAATCACGTGGCGGG | 0.21
133 | CAACGCACGTGGTGTG | -0.06
134 | CGTGGCACGTGATGAT | -0.14
135 | GGGTACACGTGTGGTT | 0.18
136 | TGTTACACGTGGCTCG | 0.04
137 | GGAAACACGTGTGTGC | 0.07
138 | TGAGGCACGTGATGGA | 0.02
139 | GTTGACACGTGAGTTC | 0.3
140 | GCGTACACGTGGTGAT | 0.03
141 | ATAGTCACGTGTATAT | 0.14
142 | TTGTACACGTGTGGCC | 0.14
143 | TGGTGCACGTGGATTA | 0.08
144 | ATGTGCACGTGAAAGG | 0.03
145 | GTTAACACGTGGTTTT | 0.1
146 | TTTAACACGTGTATAT | -0.02
